53 compounds from publication PMC4336329 (PLoS ONE, 2015) can be followed below.

SMILES strings stand for the structures. The whole screen tested about 310,000 compounds, of which about 14,000 (4.5%) showed an effect of 50% or more. Effects have a minus sign here. The list shows a part of the results.
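Note: peak tail current of the secondary pulse compared with the same well before compound.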

human ether-à-go-go-related gene (hERG) potassium channel, sequence (Q12809 whole entry, looked up): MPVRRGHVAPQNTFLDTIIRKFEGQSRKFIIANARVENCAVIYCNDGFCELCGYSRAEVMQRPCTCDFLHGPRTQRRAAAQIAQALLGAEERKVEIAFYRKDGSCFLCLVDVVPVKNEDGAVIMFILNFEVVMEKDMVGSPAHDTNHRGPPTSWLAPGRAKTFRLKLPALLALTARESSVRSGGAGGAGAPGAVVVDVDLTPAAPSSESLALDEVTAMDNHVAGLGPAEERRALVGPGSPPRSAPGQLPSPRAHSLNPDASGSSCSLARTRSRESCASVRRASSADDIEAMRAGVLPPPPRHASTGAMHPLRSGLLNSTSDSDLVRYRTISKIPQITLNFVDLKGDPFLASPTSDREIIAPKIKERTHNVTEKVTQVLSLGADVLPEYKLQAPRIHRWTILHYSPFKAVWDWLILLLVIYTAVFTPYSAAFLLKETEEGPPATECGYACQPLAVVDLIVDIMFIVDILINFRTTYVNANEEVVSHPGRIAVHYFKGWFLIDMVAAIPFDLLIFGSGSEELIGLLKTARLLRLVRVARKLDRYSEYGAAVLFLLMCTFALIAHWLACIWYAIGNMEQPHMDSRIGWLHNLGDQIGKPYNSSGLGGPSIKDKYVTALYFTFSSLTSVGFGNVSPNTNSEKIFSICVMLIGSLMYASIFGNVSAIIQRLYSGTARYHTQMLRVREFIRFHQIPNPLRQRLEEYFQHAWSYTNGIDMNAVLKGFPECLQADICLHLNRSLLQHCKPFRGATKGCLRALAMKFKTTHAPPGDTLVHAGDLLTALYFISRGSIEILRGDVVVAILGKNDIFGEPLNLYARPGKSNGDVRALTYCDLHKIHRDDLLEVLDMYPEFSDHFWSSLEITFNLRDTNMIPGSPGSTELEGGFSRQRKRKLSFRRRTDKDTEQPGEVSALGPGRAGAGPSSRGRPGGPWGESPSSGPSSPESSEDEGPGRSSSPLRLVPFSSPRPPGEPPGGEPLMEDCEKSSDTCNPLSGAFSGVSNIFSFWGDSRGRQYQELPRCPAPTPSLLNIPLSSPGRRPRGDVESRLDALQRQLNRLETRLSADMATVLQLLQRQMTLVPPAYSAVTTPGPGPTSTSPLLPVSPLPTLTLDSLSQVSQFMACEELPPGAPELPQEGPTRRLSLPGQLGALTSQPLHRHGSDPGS

The assay concerns the target human ether-à-go-go-related gene (hERG) potassium channel (human, UniProt Q12809). The experiment in a line: primary screen, population patch clamp on CHO cells stably expressing hERG.
In the case of `O=c1[nH]c(O)c(C=Nc2ccc(F)c(Cl)c2)c(=O)[nH]1`, the “hERG current change (%, negative = inhibition) at 10uM” value was 7.3%.

Turning to `CCN1CCN(C(=O)c2cccc(OC3CCN(S(C)(=O)=O)CC3)c2)[C@@H](C)C1=O`, the “hERG current change (%, negative = inhibition) at 10uM” value is 13.7%.

For `Cc1ccc(NC(=O)CN(C)C(=O)CNC(=O)c2sc3ccccc3c2Cl)cc1`, the “hERG current change (%, negative = inhibition) at 10uM” value is -9.59%.

For the compound `COc1cc(C)ccc1OCC(=O)NC1CCCCCC1`, the “hERG current change (%, negative = inhibition) at 10uM” value was -4.92%.

Regarding `COc1ccc(-c2c(-c3ccc(OCC(=O)NN)cc3O)n[nH]c2C)cc1OC`, the “hERG current change (%, negative = inhibition) at 10uM” value amounted to 7.91%.

Regarding `CCOc1c(Br)cc(CNc2ccc(N3CCN(C(C)=O)CC3)cc2)cc1OC`, the “hERG current change (%, negative = inhibition) at 10uM” value is on record as -4.91%.

For the compound `CCCNC(=O)CCn1nc(-c2ccccc2)c2ccccc2c1=O`, the “hERG current change (%, negative = inhibition) at 10uM” value came to 4.47%.

Regarding `COc1cc(OC)cc(C(=O)Nc2cc(C)nn2-c2ccccc2)c1`, the “hERG current change (%, negative = inhibition) at 10uM” value was 16.3%.

As for `CCN(CC(=O)Nc1ccc(NC(C)=O)cc1)C(=O)Cc1ccccc1F`, the “hERG current change (%, negative = inhibition) at 10uM” value turned out to be 14.5%.

With `N#Cc1cccc(NC(=O)CCC2CCCC2)c1`, the “hERG current change (%, negative = inhibition) at 10uM” value was -7.85%.

As to `Cc1ccc(NC(=O)CSCC(=O)N2CCN(c3cccc(C(F)(F)F)c3)CC2)cc1`, the “hERG current change (%, negative = inhibition) at 10uM” value is -13%.

As to `COc1ccc(CCNS(=O)(=O)c2c(C)[nH]c(C)c2C(=O)N2CCCCC2)cc1OC`, the “hERG current change (%, negative = inhibition) at 10uM” value stood at 6.91%.

As to `N/C(=N\OC(=O)c1cccc2ccccc12)c1cccnc1`, the “hERG current change (%, negative = inhibition) at 10uM” value amounted to 12.3%.

On to `CCCNC(=O)C(=O)c1cccn1-c1ccsc1C(=O)OC`, for which the “hERG current change (%, negative = inhibition) at 10uM” value is reported as 1.12%.

For `CCCCS(=O)CC(CS(=O)CCCC)OC(=O)c1ccc(C)cc1` (centres unmarked), the “hERG current change (%, negative = inhibition) at 10uM” value is reported as -49.2%.

Consider `CC(C)CCN1C(=O)c2ccccc2C1C(=O)NCc1cccnc1` (centres unmarked), for which the “hERG current change (%, negative = inhibition) at 10uM” value is listed as -16.1%.

With `O=C(NCCCn1ccnc1)c1cccc(S(=O)(=O)Nc2ccc(Br)cc2)c1`, the “hERG current change (%, negative = inhibition) at 10uM” value is on record as -7.87%.

In the case of `CN1C(=O)N(C)C(c2cccc([N+](=O)[O-])c2)C2=C1CCCC2=O` (centres unmarked), the “hERG current change (%, negative = inhibition) at 10uM” value is given as -0.563%.

Consider `O=C(/C(=C(\[O-])c1ccccc1)[n+]1ccc2ccccc2c1)c1ccc([N+](=O)[O-])cc1`, for which the “hERG current change (%, negative = inhibition) at 10uM” value worked out at 6.9%.

`CCOc1cc(NC(=S)N2CCC(C(N)=O)CC2)c(C(=O)OC)cc1OCC`: the “hERG current change (%, negative = inhibition) at 10uM” value was -12.7%.

Regarding `CCOC(=O)c1ccc(NS(=O)(=O)c2cc(-c3nnnn3C(C)C)ccc2OC)cc1`, the “hERG current change (%, negative = inhibition) at 10uM” value is listed as -19.2%.

Turning to `CCOc1ccc(NS(=O)(=O)c2csc(C(N)=O)c2)cc1`, the “hERG current change (%, negative = inhibition) at 10uM” value turned out to be 15.4%.

With `Cc1ccccc1NC(=O)CN1C(=O)c2cccnc2Oc2ccc(Cl)cc21`, the “hERG current change (%, negative = inhibition) at 10uM” value is given as 3.73%.

As to `CCc1sc(C(=O)N2CCc3cc(OC)c(OC)cc3C2CC(=O)O)cc1C` (centres unmarked), the “hERG current change (%, negative = inhibition) at 10uM” value is 24.8%.

As to `Cc1ccc(NC(=O)CN2CCN(c3ccccn3)CC2)cc1S(=O)(=O)N(C)C`, the “hERG current change (%, negative = inhibition) at 10uM” value was -22.1%.

Turning to `COc1ccc(NC2CCCN(C(=O)CCC(=O)c3ccc(F)cc3)C2)cc1` (centres unmarked), the “hERG current change (%, negative = inhibition) at 10uM” value is -34.2%.

On to `C=CCn1c(O)c(C(CC)=Nc2ccc(NC(C)=O)cc2)c(=O)[nH]c1=O`, for which the “hERG current change (%, negative = inhibition) at 10uM” value is 0.499%.

Regarding `COc1ccc(C(=O)N2CCOC2CNC(=O)C(=O)NCc2ccc(Cl)cc2)cc1` (centres unmarked), the “hERG current change (%, negative = inhibition) at 10uM” value was -8.54%.

Consider `O=C(N/N=C\c1ccccc1)c1ccccc1-n1cccc1`, for which the “hERG current change (%, negative = inhibition) at 10uM” value was 3.38%.

Regarding `CCOc1ccc(/C=C/C(=O)Nc2ccccc2C(F)(F)F)cc1`, the “hERG current change (%, negative = inhibition) at 10uM” value came out at 7.68%.

In the case of `Cl.O=C1C2CCCN2C(=O)N1CCCN1CCN(c2cccc(Br)c2)CC1` (centres unmarked), the “hERG current change (%, negative = inhibition) at 10uM” value was -9.07%.

Regarding `Cc1cc(C(=O)NCc2ccc3c(c2)OCO3)ccc1[N+](=O)[O-]`, the “hERG current change (%, negative = inhibition) at 10uM” value came out at 0.238%.

With `O=C(O)C1C2C=CC(C2)C1C(=O)Nc1ccc(C(=O)N2CCCCC2)c(Cl)c1` (centres unmarked), the “hERG current change (%, negative = inhibition) at 10uM” value came out at 4.45%.

As for `O=C(COC(=O)c1cc(S(=O)(=O)N2CCCC2)ccc1O)Nc1ccc(S(=O)(=O)N2CCOCC2)cc1`, the “hERG current change (%, negative = inhibition) at 10uM” value worked out at 23.6%.

For `COC(=O)C1=C(C(=O)OC)[C@@H]2N(C)c3ccc(OC)cc3[C@@]23C[C@@H](C(=O)OC)N(C(=O)NC2CCCCC2)C3=N1`, the “hERG current change (%, negative = inhibition) at 10uM” value is listed as -26%.

`O=C1Cc2cc(S(=O)(=O)NCc3ccccc3Cl)cc3c2N1CCC3`: the “hERG current change (%, negative = inhibition) at 10uM” value worked out at 6.14%.

Regarding `CC(C)CN(C(=O)CN1CC=C(c2ccccc2)CC1)c1c(N)n(CC(C)C)c(=O)[nH]c1=O`, the “hERG current change (%, negative = inhibition) at 10uM” value was -0.684%.

Take `Cc1nc(C)c(C(=O)N/N=C/c2cn(C)c3ccccc23)s1`: the “hERG current change (%, negative = inhibition) at 10uM” value worked out at 0.111%.

Consider `CC(=O)OCC(=O)[C@@]1(O)CC[C@H]2[C@@H]3CCC4=CC(=O)C=C[C@]4(C)[C@H]3[C@@H](O)C[C@@]21C`, for which the “hERG current change (%, negative = inhibition) at 10uM” value turned out to be 10.6%.

Consider `CCCCc1ccc(NC(=O)CN2C(=O)C3CCCCC3C2=O)cc1` (centres unmarked), for which the “hERG current change (%, negative = inhibition) at 10uM” value is -20.7%.

As to `COc1cc(SC)ccc1C(=O)OCC(=O)NC1CC1`, the “hERG current change (%, negative = inhibition) at 10uM” value was determined as 7.53%.

Take `Cc1ccc([N+](=O)[O-])cc1NC(=O)c1cccnc1`: the “hERG current change (%, negative = inhibition) at 10uM” value is recorded as 14.5%.

For the compound `CN1CCN(S(=O)(=O)c2ccc(Sc3nnc(-c4cccs4)n3-c3ccccc3)nc2)CC1`, the “hERG current change (%, negative = inhibition) at 10uM” value is reported as -2.12%.

Turning to `COc1ccc(-c2cc(C(=O)NCC3CCCO3)c3cc(C)ccc3n2)cc1` (centres unmarked), the “hERG current change (%, negative = inhibition) at 10uM” value is recorded as -3.03%.

For the compound `CCOC(=O)C1=C(C)N=C2SC(C)C(=O)N2C1/C=C/c1ccccc1OC` (centres unmarked), the “hERG current change (%, negative = inhibition) at 10uM” value is reported as -0.644%.

On to `Cn1c(C(=O)NCCN2CCN(Cc3ccccc3)CC2)cc2c(=O)n(C)c3ccccc3c21`, for which the “hERG current change (%, negative = inhibition) at 10uM” value is given as -25.5%.

For the compound `Cc1cc(CNC(=O)Cc2ccccc2)c2ccccc2n1`, the “hERG current change (%, negative = inhibition) at 10uM” value was -6.64%.

For the compound `CCCN(CCC)S(=O)(=O)c1ccc(C(=O)NCc2ccco2)cc1`, the “hERG current change (%, negative = inhibition) at 10uM” value is 3.79%.

As for `CC/C(=C(/CC)c1ccc(O)cc1)c1ccc(O)cc1`, the “hERG current change (%, negative = inhibition) at 10uM” value worked out at 2.61%.

For `Cc1cccc(N2C(=O)NC(=O)C3(Cc4cc(C)ccc4N(C)C3)C2=O)c1` (centres unmarked), the “hERG current change (%, negative = inhibition) at 10uM” value is listed as 12.1%.

On to `CC[N+](CC)(CC)C/C(N)=N/O.[Cl-]`, for which the “hERG current change (%, negative = inhibition) at 10uM” value turned out to be 11.8%.

For the compound `Cc1ccc(CNC(=O)c2ccccc2CCc2ccccc2)cc1`, the “hERG current change (%, negative = inhibition) at 10uM” value is listed as -8.34%.

Turning to `Cc1ccc(N2C(=O)C(O)(C(F)(F)F)C3=C2CC(C)(C)CC3=O)cc1` (centres unmarked), the “hERG current change (%, negative = inhibition) at 10uM” value is on record as 6.89%.
